# Data: PubChem BioAssay AID504332 (National Center for Advancing Translational Sciences (NCATS), 2011)
# Screen size: about 350,000 compounds; about 31,000 (8.9%) were called active. Inconclusive results, whose numbers are uncertain, are shown with a selection of clear calls. The call rests on the fitted dose curve; in most records, active means well fitted inhibition curve with a large enough effect; inconclusive means small, poorly fitted or top-dose-only effect; inactive means no such curve, though single readings can be large or run the other way. Where the call is inconclusive, the potency comes from a doubtful curve fit.
# Molecular target: Histone-lysine N-methyltransferase EHMT2 (Homo sapiens) (UniProt Q96KQ7)
# Assay: qHTS Assay for Inhibitors of Histone Lysine Methyltransferase G9a; further: nearly all actives have a fitted effect of over 75% in size
# Conditions: G9a H3K9 monomethylation, AlphaScreen, 2 h; activity, negative = inhibition: at 59 µM (top of the series) unless noted
# How it was run: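 Enzyme 20 nM + cpd, 15 min RT; add b-H3K9 pep 500 nM / SAM 20 uM; 2 h RT; anti-H3K9me1 Ab 0.5 ug/mL + SA donor / anti-rabbit acceptor beads 20 ug/mL each, 10 min; AlphaScreen read.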
# On the % scale 0 is the no-effect control and ±100 the full control effect; potency means the concentration at half of the fitted maximal effect; tags describe the fitted curve by direction and shape.
# UniProt Q96KQ7, sequence (Q96KQ7 whole entry, looked up): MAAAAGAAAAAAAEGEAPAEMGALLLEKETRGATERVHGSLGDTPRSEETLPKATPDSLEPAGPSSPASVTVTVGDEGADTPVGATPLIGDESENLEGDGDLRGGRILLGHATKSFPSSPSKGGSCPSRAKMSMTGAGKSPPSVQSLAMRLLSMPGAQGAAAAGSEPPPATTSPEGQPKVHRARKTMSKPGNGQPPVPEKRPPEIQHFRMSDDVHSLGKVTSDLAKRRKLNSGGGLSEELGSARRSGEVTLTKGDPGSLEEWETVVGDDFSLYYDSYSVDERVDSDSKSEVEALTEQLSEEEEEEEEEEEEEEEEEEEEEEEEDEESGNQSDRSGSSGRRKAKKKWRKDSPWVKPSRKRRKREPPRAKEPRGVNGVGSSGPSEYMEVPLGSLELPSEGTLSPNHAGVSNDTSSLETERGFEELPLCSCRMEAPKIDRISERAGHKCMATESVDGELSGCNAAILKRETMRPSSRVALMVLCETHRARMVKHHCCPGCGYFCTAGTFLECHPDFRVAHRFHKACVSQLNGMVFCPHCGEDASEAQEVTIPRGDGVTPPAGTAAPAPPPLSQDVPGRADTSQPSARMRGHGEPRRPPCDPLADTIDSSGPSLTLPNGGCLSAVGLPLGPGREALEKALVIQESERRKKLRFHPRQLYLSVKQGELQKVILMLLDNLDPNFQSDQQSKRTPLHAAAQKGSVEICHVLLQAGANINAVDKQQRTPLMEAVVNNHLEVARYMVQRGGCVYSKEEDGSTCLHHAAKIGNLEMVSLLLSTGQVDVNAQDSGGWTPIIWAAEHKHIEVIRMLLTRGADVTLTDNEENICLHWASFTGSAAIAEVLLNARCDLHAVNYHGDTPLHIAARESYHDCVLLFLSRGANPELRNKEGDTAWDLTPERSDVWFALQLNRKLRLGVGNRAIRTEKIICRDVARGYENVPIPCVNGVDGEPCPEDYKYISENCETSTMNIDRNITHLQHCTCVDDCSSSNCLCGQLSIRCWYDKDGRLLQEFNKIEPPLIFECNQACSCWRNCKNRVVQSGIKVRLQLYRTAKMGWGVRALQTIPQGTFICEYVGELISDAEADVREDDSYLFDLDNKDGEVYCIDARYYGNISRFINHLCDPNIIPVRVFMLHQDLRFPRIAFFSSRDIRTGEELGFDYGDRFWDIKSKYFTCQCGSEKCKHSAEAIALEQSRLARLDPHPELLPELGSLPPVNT
Compound,Potency,"activity, negative = inhibition"
O=C(COC(=O)c1cncc(Br)c1)NCC12CC3CC(CC(C3)C1)C2,"inconclusive: 31.6 µM [inhibitor, partial curve, poor fit]",
Cc1cc(NS(=O)(=O)c2ccc(NC(NC(=O)C(C(F)(F)F)C(F)(F)F)(C(F)(F)F)C(F)(F)F)cc2)no1,"inconclusive: 20 µM [inhibitor, single point]",
CC(=O)C1=C(O)C(=O)N(c2ccc(F)cc2)C1c1ccc(C)cc1 (configuration not stated),,inactive: -0.24% [at 0.501 µM]
Cc1cc(C)c(S(C)(=O)=O)c(Oc2ccc(C(C)(C)C)cc2)n1,,inactive: -3.25% [at 102 µM]
Cc1c(N(C(=O)Nc2ccccc2)C2=NCC(C)S2)c(=O)n(-c2ccccc2)n1C (configuration not stated),"inconclusive: 79.4 µM [inhibitor, single point]",
COc1ccc(C2C(C(=O)c3cccs3)=C(O)C(=O)N2CCN2CCOCC2)c(OC)c1 (configuration not stated),active: 50.1 µM,
CC1=CC(C)(C)Nc2ccc(OC(=O)CN3C(=O)c4ccccc4C3=O)cc21,active: 35.5 µM,
COc1ccc(N(C)S(=O)(=O)c2cccc(C(=O)Nc3cccc(C(=O)NC4CC4)c3)c2)cc1,"inconclusive: 39.8 µM [inhibitor, single point]",
N#CC1=C(N)C2=CCCC[C@H]2[C@H](c2ccccc2)C1(C#N)C#N,"inconclusive: 28.2 µM [inhibitor, single point]",
CC(=O)N/C(=N/c1nc(C)cc(C)n1)Nc1ccc(NC(C)=O)cc1,,inactive: -4.89% [at 12.7 µM]
O=C(/C=C/c1ccco1)N(Cc1cccc(F)c1)C1CCS(=O)(=O)C1 (configuration not stated),active: 39.8 µM,
O=C(CSc1nnc(NC(=O)C2CC2)s1)Nc1ccc2c(c1)OCCO2,,inactive: 2.01% [at 102 µM]
O=[N+]([O-])c1ccc(CN2CCSCC2)cc1,active: 25.1 µM,
CCCNC(=O)CN1CCN(c2ncc(NC(=O)c3ccc(Cl)cc3)cc2C(=O)O)CC1,"inconclusive: 28.2 µM [inhibitor, single point]",
CCCc1nnc(NC(=O)C2CC(=O)N(C3CCCC3)C2)s1 (configuration not stated),active: 22.4 µM,
CCOC(=O)c1ccc(-c2ccc(/C=C(\C#N)C(=O)Nc3ccc(C)cc3OC)o2)cc1,,inactive: 4.96%
Cc1cc2n(n1)C(c1cn(-c3ccccc3)nc1C)Nc1ccccc1-2 (configuration not stated),,inactive: 0.24%
CCc1nc2cccnc2n1-c1ccc(C(=O)O)cc1,active: 35.5 µM,
C=CCNC1=C2C[C@@H](C)C[C@H](OC)[C@H](O)[C@@H](C)/C=C(\C)[C@H](OC(N)=O)[C@@H](OC)/C=C\C=C(/C)C(=O)NC(=CC1=O)C2=O,"inconclusive: 15.8 µM [inhibitor, partial curve]",
O=C(O)CCC(=O)Nc1ccccc1Oc1ccccc1,,inactive: -10.6% [at 102 µM]
O=S(=O)(Nc1ccc(-c2ccc3nncn3n2)cc1)c1cc(F)ccc1F,,inactive: -11% [at 102 µM]
COc1ccc(-c2nc(CS(=O)CC(=O)NCCc3ccc(OC)c(OC)c3)c(C)o2)cc1 (configuration not stated),,inactive: 19% [at 102 µM]
COc1ccc(CNC(=O)[C@H](Cc2c[nH]c3ccccc23)NC(=O)[C@@H]2Cc3ccccc3CN2)cc1,"inconclusive: 8.91 µM [inhibitor, partial curve, poor fit]",
S=C(NCc1ccco1)N1CCN(c2nc(-c3ccc(Cl)cc3)cs2)CC1,"inconclusive: 44.7 µM [inhibitor, partial curve, poor fit]",

Compound,Potency,"activity, negative = inhibition"
COc1ccc(Nc2ccc(S(=O)(=O)N3CCCCC3)cc2[N+](=O)[O-])cc1,active: 25.1 µM,
O=C(CSc1nnc2ccccn12)c1ccc2c(c1)OCCO2,active: 39.8 µM,
CC1(C)SC2C(NC(=O)C(N)c3ccccc3)C(=O)N2C1C(=O)O (configuration not stated),,inactive: 3.85% [at 2.33 µM]
CC(c1ccccc1)N1CC(C(=O)N2CCCC(C(N)=O)C2)CC1=O (configuration not stated),,inactive: 3.75% [at 12.7 µM]
COc1ccc(CCn2c(=N)c(C(=O)NCCN3CCOCC3)cc3c(=O)n4ccccc4nc32)cc1OC,"inconclusive: 89.1 µM [inhibitor, single point]",
O=S(=O)(c1ccccc1)c1nc(-c2ccc(F)cc2)oc1N1CCCCCC1,active: 12.6 µM,
COc1cc(C2c3c(-c4cc(C)cc(C)c4O)n[nH]c3C(=O)N2CCCO)cc(OC)c1OC (configuration not stated),"inconclusive: 25.1 µM [inhibitor, single point]",
COCCCN(C(=O)c1cc2c(s1)CCC2)c1c(N)n(Cc2ccccc2)c(=O)[nH]c1=O,,inactive: -41.7% [at 102 µM]
COc1ccc(-c2cc(-c3ccc(OC)cc3)[nH]n2)cc1,,inactive: 6.22%
CC(C)CNc1nc(Oc2ccc(=O)n(-c3ccccc3)n2)nc(N2CCOCC2)n1,,inactive: 27.2% [at 2.33 µM]
COc1cc(NC2c3ccccc3C(=O)N2c2cc(C)ccn2)cc(OC)c1OC (configuration not stated),"inconclusive: 89.1 µM [inhibitor, single point]",
Cc1cc(C(C)(C)C)cc(C)c1Cn1c2[n+](c3ccc(C(F)(F)F)cc31)CCCCC2,,inactive: -47% [at 102 µM]
Cc1ccc(-c2cc(C(=O)N3CCN(c4ccccc4)CC3)c3ccccc3n2)cc1C,"inconclusive: 25.1 µM [inhibitor, single point]",
COc1cc(Cl)c(C)cc1NC(=O)CN1C(=O)C2CCCCC2C1=O (configuration not stated),,inactive: -2.98% [at 12.7 µM]
CCOc1cccc(C=Nc2cc(C)cc(C)c2O)c1O,"inconclusive: 1.78 µM [inhibitor, full curve, poor fit]",
CCCOc1ccccc1NC(=O)/C=C/C(N)=O,active: 35.5 µM,
Cc1ccc(C(=O)CNc2ccc(Cl)cc2)cc1,"inconclusive: 25.1 µM [inhibitor, single point]",
CSCCC(C(=O)NCc1cccs1)N1C(=O)c2ccccc2C1=O (configuration not stated),,inactive: 8.15%
Cc1ccc(C(C)NC(=O)c2ccncc2)cc1C (configuration not stated),"inconclusive: 3.16 µM [inhibitor, partial curve, poor fit]",
COc1ccc(C(=O)Nc2ccccc2C(=O)NC(Cc2c[nH]c3ccccc23)C(=O)O)cc1 (configuration not stated),"inconclusive: 50.1 µM [inhibitor, partial curve]",
O=C(CCc1nnc2ccc(NCc3ccccc3Cl)nn12)NCC1CCN(C2CCCC2)C1 (configuration not stated),"inconclusive: 31.6 µM [inhibitor, full curve, poor fit]",
Cc1ccc(N2CC(NC(=O)C(=O)c3c[nH]c4ccccc34)CC2=O)cc1 (configuration not stated),,inactive: 4.52%
Cc1ccc(C2C(C#N)=C(N)Oc3c2oc(CO)cc3=O)o1 (configuration not stated),"inconclusive: 39.8 µM [inhibitor, single point]",
O=C(NCc1ccccc1)C(c1ccc(F)cc1)N(C(=O)c1csnn1)C1CC1 (configuration not stated),,inactive: 23.2% [at 102 µM]

Compound,Potency,"activity, negative = inhibition"
O=C(/C(=C/O)N=Nc1ccccc1)c1ccncc1,,inactive: -2.37%
Cc1cc(Cl)ccc1NC(=O)CSc1nnc(-c2ccncc2)n1Cc1ccco1,"inconclusive: 70.8 µM [inhibitor, partial curve, poor fit]",
COC(=O)c1sc(NC(=O)CSc2n[nH]c(N)n2)c(C(=O)OC)c1C,,inactive: 20.5% [at 102 µM]
O=C(Cn1ncc2c(Cl)cccc21)NCc1cccc(Br)c1,,inactive: -24%
O=S1(=O)CC=C(CSc2nc3ccccc3[nH]2)C1,"inconclusive: 50.1 µM [inhibitor, partial curve]",
N/C(=N\OCc1ccc([N+](=O)[O-])cc1)c1ccncc1,"inconclusive: 89.1 µM [inhibitor, single point]",
O=C(c1ccccc1)C(O)C(c1ccccc1)N1CCOCC1 (configuration not stated),,inactive: -0.395% [at 102 µM]
CCCC(=O)OCCNc1cc(Sc2nc3ccccc3[nH]2)c2nonc2c1[N+](=O)[O-],"inconclusive: 7.94 µM [inhibitor, full curve, poor fit]",
C/C(=N\NC(=O)c1cc(C2CC2)nc2ccccc12)c1ccc(C)s1,active: 39.8 µM,
O=C(c1ccc2c3c(cccc13)C(=O)N(O)C2=O)N1CCCCC1,"inconclusive: 50.1 µM [inhibitor, partial curve, poor fit]",
N#C/C(=C\c1c(Oc2ccc(Br)cc2)nc2ccccn2c1=O)c1nc2ccccc2s1,active: 2.82 µM,
Cc1ccc(NC(=O)CSc2nnc(-c3cccnc3)o2)c(C)c1,active: 44.7 µM,
Cn1c(SCC(=O)Nc2ccc3nc(SCC(=O)N4CCCC4)sc3c2)nnc1-c1ccccc1,"inconclusive: 39.8 µM [inhibitor, single point]",
COc1cccc(C2=NOC(C(=O)N3CCN(c4ccccc4)CC3)C2)c1OC (configuration not stated),"inconclusive: 39.8 µM [inhibitor, single point]",
COc1cccc(CNC(=O)c2cnc(-c3ccccn3)nc2C(F)(F)F)c1,"inconclusive: 17.8 µM [inhibitor, partial curve, poor fit]",
Oc1ccc(NCc2ccc(OCc3ccccc3Cl)cc2)cc1,active: 3.16 µM,
CCOC(=O)c1c(NC(=O)c2cc(=O)c3ccc(C)cc3o2)sc(C)c1C,,inactive: -3.3%
COc1cccc(N2CCN(S(=O)(=O)c3ccc4c(c3)CCCN4C(C)=O)CC2)c1,,inactive: 3.68%
O=S(=O)(c1cccc(F)c1)N1CCN(Cc2cc3c(cc2Br)OCCO3)CC1,"inconclusive: 39.8 µM [inhibitor, partial curve, poor fit]",
OCc1ccccc1N=Cc1cccnc1,,inactive: 19% [at 102 µM]
Cc1ccc(C(=O)OCC(=O)NCc2cccs2)cc1S(=O)(=O)N1CCOCC1,"inconclusive: 35.5 µM [inhibitor, partial curve, poor fit]",
CN(C)c1ccc(CNC(=O)CCCn2ccc3cc(S(=O)(=O)N4CCCC4)ccc32)cc1,active: 8.91 µM,
CC(C)C(=O)NNC(=O)c1csc(CS(=O)(=O)c2ccc(Cl)cc2)n1,,inconclusive: -73.1% [inhibitor]
CCOC(=O)C(NC(=O)c1ccccc1)=C(C)C,,inactive: 17.4% [at 102 µM]
